# This is one part of the list.
# Test system: PF3D7_0420300 AP2 domain 1 (GST-tagged)
# Assay: gcPBM binding intensity (ln(normalized median fluorescence intensity)); higher = stronger DNA binding
# Procedure, shortened: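 GST-tagged P. falciparum DNA-binding domains, expressed in E. coli (about 25 μg on average), were applied for 1 h to an Agilent 4 × 180k array of primer-extended double-stranded 36-bp intergenic genomic probes plus negative controls. The binding buffer was 1× PBS with 1% milk, 0.2 mg/ml BSA, 0.5% salmon testes DNA and 0.03% Triton X-100. Bound protein was detected with Alexa488 anti-GST antibody and scanned at 488 nm. Binding intensity is the highest Masliner-normalised natural-log median intensity across replicate spots of either probe orientation.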
row,Sequence,gcPBM binding intensity (ln)
1,TATAATAAAATTTTTACACACTTTAAAAAAAAAAAA [CACACA_site524],9.06
2,TACTGATATAATATAACCGTTTATGTGTATTTTTTA [XGTACX_negctrl_site81],9.37
3,TTCAAATATATGTTTTCACACACAAAAGAAATGAAA [CACACA_site8671],9.39
4,CGTGGAAAAAAAAACACACACAAAAAAAAAAAAAAA [CACACA_site3997],9.19
5,TTTTCTCTAAAAAGGTGTACAACTAATAATGCACTG [XGTACX_site6074],9.02
6,ATATATATATAATATTGTACGAAAAAAAATAAAAAA [XGTACX_site974],9.43
7,TATATTAATTATAAGACACACATATAGTAATAGAAA [CACACA_site2056],9.53
8,AATAAGAAAACAAATGCACACCATTTATATAGATTA [CACACA_site8261],9.56
9,ATGGGTTAGGCGTGTACACAATTGTATGGTTTAATA [CACACA_site4812],9.6
10,TTTATATATTTTTATCTTGATAATAATGTTTTAGAA [TGCATGCA_negctrl_site300],8.82
11,ACATATTTTTACTTTTGTACATATTTTTTAATTTTC [XGTACX_site640],9.53
12,GTATATTACATAAAATGTACATAAAAAGCGGAAAAG [XGTACX_site6905],9.57
13,AAGGGAAAAATATGGTTGCACTAAAAATATGTAATT [GTGCAC_site9605],9.2
14,TTTCTATATAGATTTGCACACATAAAAATGCTTATA [CACACA_site2390],9.43
15,CTTTATACATGACATAGTACCCATTTTAGATTTGAA [XGTACX_site5240],9.03
16,TATTTTACTTTAAAAATGGAAAAAAAAAAGAATATT [CACACA_negctrl_site1360],9.13
17,TTTTTTTTTTTTACATGTACATATGAATTATAATAT [XGTACX_site5016],9.2
18,TTAATAAAACTAACACGTACACATATATAATATTAT [XGTACX_site3260],9.57
19,GAAAGAAGCATAAATGTACACACATATTTATATATT [CACACA_site8368],9.5
20,ATTGTCATCATTATATGTACGTAAAAGAATATAGAT [XGTACX_site3117],9.26
21,TATGTTAAAAAAAAAAAAAAGAAAAAAATAAAAGGA [CACACA_negctrl_site119],9.44
22,AAACAAATAGACACTTGTACGTAAGTAAATAATTAA [XGTACX_site6157],9.43

row,Sequence,gcPBM binding intensity (ln)
1,AAAAATATATAAACACGTACACACACATATATGTAT [XGTACX_site7436],10.1
2,ACATTTATATATAATTGTACCCTACATTCTCTTTTT [XGTACX_site189],9.5
3,GAAAAAAAAAAAAAAAGAAAATTCATATTTTTAATA [XGTACX_negctrl_site513],8.74
4,TACCAAAAAAAAAAAAAAAATTAAATAAATATGAAA [TGCATGCA_negctrl_site383],8.9
5,GGGTTGATATATATTTGTACATATTATTATTTATTA [XGTACX_site7116],9.72
6,ATATATATATATTATGTGCGCATATACCATTTTAAT [GTGCAC_site9575],9.32
7,TTTATTTTAACTTGTTCACACATTTGAATAAATAAA [CACACA_site5064],9
8,TTTAAAAAAATGAAATAAAAAAAAAATAAAATAAAA [XGTACX_negctrl_site316],9.09
9,ATATATATAATTTGTACACACAAATATGCATATATA [CACACA_site3432],9.48
10,AAATAATTTATATATTGTACAAATATTAAATGCGAA [XGTACX_site3390],9.36
11,AGATATTTTTCTTAAGTACACACTAAATAGAAACTA [CACACA_site44],9.18
12,AGTCTGAATAAAATTACACACATATACCTATAAATA [CACACA_site6929],9.55
13,TTTTTTTTTTTCAGTTGTACATTGGGAAAATATATA [XGTACX_site4416],9.01
14,ATAAAATAAAACAACACACACGAATGTATAAATATA [CACACA_site4643],10
15,TAATAATATAAATATGCACACAAATTATTACCCAAA [CACACA_site8805],9.5
16,AATAAAATACAAAAATGTACAAATATAATATACATA [XGTACX_site279],9.35
17,ATATATATTATAATAACACACATATATTATATTATA [CACACA_site406],9.37
18,TATATATATAAATGAATGCACTTTAGAAAAAAGTAC,9.09
19,TAGATATATAGAATTACACACTTTTCTATAATATGA [CACACA_site6475],9.14
20,TAATATAAAATGATAAATGAATGTGATCATTTTATA [CACACA_negctrl_site1034],9.2
21,ACATACTCAAATAGCACACACATAAATAAAAATGTA [CACACA_site3864],9.79
22,ATATATATTTAAAACGCATGCCTTGTTATATATATA [TGCATGCA_site624],9.3

row,Sequence,gcPBM binding intensity (ln)
1,CATATATATTTTATATGTACATATATATTTTATATA [XGTACX_site8665],9.21
2,ATTACAAAAATATATAAACACACAAATATAATATAT [CACACA_site8962],9.76
3,ATATAAATATTAATTACACACAAAAAAAAAAAAAAA [CACACA_site6671],9.35
4,AATGGAAAAGGTAGTTGTACAACATGTTAAAATGGT [XGTACX_site1312],9.62
5,TTGAAGAATAAATATGCACACATGCATATATTTTTA [CACACA_site5840],9.07
6,ATATAAATAAACAACTTTGTTGGCCTTCCAAAATAT [CACACA_negctrl_site1181],9.23
7,AATAAAAAAAAACGCACACACAAATATATTCCATTC [CACACA_site1224],10.1
8,CTCAAAAAATTTCATAGTACTTTAAAATACTATAAT [XGTACX_site1939],8.84
9,TTTTGTTCTAATATGGGAACATAAATATTAAATATA [CACACA_negctrl_site1787],8.8
10,TTGGTTATACAACACATGCACACGTAAATAAATATT [CACACA_site3841],9.38
11,AAGTATGCATTATATACACACATACATTTATATATT [CACACA_site4242],9.54
12,ATTATGTTAAAAAGGCGTACATGTTATAAGGTCCTA [XGTACX_site344],9.26
13,TATATATAAAGAGAAACATGCAAAATGTGAATATTC [TGCATGCA_site377],9.59
14,TCCTTATAAATATATATATAATATATATATATATAT [CACACA_negctrl_site293],9
15,TATATATATATTTATACACACATTAGTGTAGACATG [CACACA_site8964],9.46
16,TTGTTCTAATATATTGCACACGTAAAAATATAGGTA [CACACA_site8195],9.3
17,ATCATAAAAGTATACACACATACATACATATGTACA [CACACA_site2641],9.59
18,ATAAAGATTTTCCAAGCATGCCACATAGTGAGATAC [TGCATGCA_site594],9.4
19,TTATATATTTTTACCATACACACATATAATAAATAT [CACACA_site3721],9.5
20,TAAATATATATATATGTACACACTCCAATACATATA [CACACA_site8858],9.38
21,TATATATATATTATATGTACATATTCCTATATATAC [XGTACX_site7071],9.34
22,ACTTTATATTTTGAACGTACAAAAAAAAAATTATGT [XGTACX_site5588],9.04

row,Sequence,gcPBM binding intensity (ln)
1,AACCATTAATTCTCTACACACTTTTATTTTATTTAG [CACACA_site1769],9.68
2,GCACATATATACATACATACATACATACATATGTAT [TGCATGCA_negctrl_site95],9.29
3,ATAATATGTAATATTACACACAATTCATCATTTTTT [CACACA_site3159],9.51
4,ATATACACCGTTGAATGTACATAAATAATATTAATA [XGTACX_site2893],9.33
5,AAGTATTATTTTTATGCATGTGAAGTGCAAAATAAA [TGCATGCA_site198],8.83
6,AGTACATTTTTTTTAATAGGAAAAAAAATATTTATT [TGCATGCA_negctrl_site575],8.87
7,ATATAATATATATGGTGTACATTTTTTAGTGCTATT [XGTACX_site1662],9.52
8,TAAAAGAATAAAAGTAGTACTTTTTTTTATATTAGA [XGTACX_site368],8.84
9,AAAAAGTGACTCCTTACACACTTTACATAATTTAGT [CACACA_site4606],9.46
10,ATATTTTTATATTAGTGTACTTATTATAATGTATAG [XGTACX_site8185],9.24
11,TCTTTTTTTTTTTATTGTACAAGAAAAGGAAAAAAT [XGTACX_site3717],8.78
12,AACAAAAATGAAAAAACACACATAACATATATAAAT [CACACA_site740],9.97
13,AAAAAAAAAAAAAAAGTGCACTGAAAATATATTGAA [GTGCAC_site9395],9.28
14,TTTTTAATTATTTATATAACGATAATCCTTACATAA [TGCATGCA_negctrl_site180],8.84
15,ATAATATAAATAAAAACACACACAATCGTACATATA [CACACA_site9223],10
16,ATATAATATATGTAAGTGCGCTTATAAATAAAACGA [GTGCAC_site9841],9.36
17,ATATATTGATATATGTGTACATAGCTTATTTCATTT [XGTACX_site1800],9.41
18,TATATAGAAAACAAGGCATGCAAATAACAAATTGTG [TGCATGCA_site473],9.77
19,TTTTAAAATTTTTTTTTTTTTTTTTTATGAACAAGT [GTGCAC_negctrl_site124],8.71
20,TTTTAAAGAAAATATTTTATCATTATTTTTTGTACT [CACACA_negctrl_site1648],9.1
21,AATATTTTAAATATTGCATGCAATGAAAAATGTAAA [TGCATGCA_site139],9.07
22,TCTTATTTTTTTATATATACAAAGTTTTATATATAT [GTGCAC_negctrl_site314],9.31

# Source: the supplement of paper PMC11417369
